# Results published in PMC6212790.
# The list shows a part of the results. At the low end of the ranking, values are background and their order means little.
# Biological target: T1, GST-Rok (full length) (UniProt O34857)
# T1 sequence: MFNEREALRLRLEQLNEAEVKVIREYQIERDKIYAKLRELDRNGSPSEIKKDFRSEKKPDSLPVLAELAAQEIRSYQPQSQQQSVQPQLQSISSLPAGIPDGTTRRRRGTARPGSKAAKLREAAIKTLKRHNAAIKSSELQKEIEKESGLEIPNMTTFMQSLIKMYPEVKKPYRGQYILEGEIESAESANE
# Test: protein binding microarray;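 also: rank score from −0.5 (least bound) to 0.5 (best bound)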
# Settings: Rok is a gene silencer of Bacillus subtilis; high values mean tight binding; most listed sequences are background and not binding sites; double strand, one strand shown
row,Sequence,binding signal [E-score]
1,CCTGGTGA,-0.273
2,AACGGTCT,-0.0396
3,ACCGTGCG,-0.127
4,ACAGTAAC,0.293
5,CGGGTCAC,-0.226
6,CGCCTCAC,-0.0554
7,CCCCTTCG,-0.37
8,AGGGCGTG,-0.412
9,GACTCAAC,-0.0551
10,ACGGCCTA,-0.107
11,AATGAGAC,-0.125
12,ATGGGTTC,0.139
13,CAGTACTC,0.0775
14,GATCTGGC,-0.134
15,TAGGTGAA,0.142
16,AGCTCGAG,0.116
17,ACACTCTC,0.000652
18,ACTATGTG,0.0606
19,GAAACTGC,0.0322
20,CTCGCAGA,-0.207
21,CAAGTAGG,0.153
22,CCTTGACA,-0.116
23,GTACATAC,0.28
24,CACCCTTA,-0.198
25,TGTGAACA,0.0178

row,Sequence,binding signal [E-score]
1,ACGATGGA,0.131
2,AGGAATGG,-0.257
3,TCGAGCAA,0.00787
4,ATACCGAC,0.0836
5,GTATATTA,0.391
6,GGCGAAGA,-0.0503
7,GCAGCTGC,-0.315
8,CCATCTCA,-0.304
9,CTGGAGAC,-0.262
10,ATCAGAAG,-0.00319
11,ATCCAGGG,-0.193
12,ATGGCCCC,-0.255
13,CTCTTAAA,-0.267
14,GGGGGCCA,-0.405
15,GTGCTTGA,0.0704
16,AACCAACT,0.167
17,AGTCACCA,-0.0688
18,AGTTTTGA,0.095
19,AATATTAG,0.193
20,ATACATCC,0.21
21,ATCACAAC,-0.0989
22,TCCGTAGA,0.118
23,AACGCAGT,-0.0724
24,AAAAGTGC,-0.127
25,GTGTAAGA,-0.0311

row,Sequence,binding signal [E-score]
1,AAAACACT,-0.0816
2,GGGTTAAC,-0.137
3,CTAATGAA,0.0765
4,AGTATCAA,0.24
5,ATAAAAAC,0.266
6,CGGTAACA,0.204
7,ACGCGACC,-0.0602
8,TAGTACGA,0.359
9,AGCAGCAT,0.0714
10,CGCAGTTA,0.078
11,GAAGGCAC,-0.194
12,AAGTTTGT,0.0838
13,CTCCGGGA,-0.304
14,ATTACGAC,0.322
15,CCCGAGAA,-0.115
16,ATCTTACA,0.0462
17,AGTGGGGC,-0.377
18,CACACCCA,-0.0805
19,ACGAGAGT,-0.182
20,ATCCCGGG,-0.274
21,TCGCCAAA,-0.22
22,GAGTGGCA,-0.2
23,CTCAACTC,-0.268
24,ATCGGTAA,0.198
25,AAGCGTCC,-0.273

row,Sequence,binding signal [E-score]
1,TCCTTACA,-0.0266
2,CTTCACAC,0.0658
3,AATCATTG,0.101
4,AGTCAGAT,0.00954
5,ACAGGTGG,-0.232
6,GCGGAGGA,-0.264
7,CCACGCAG,-0.274
8,AATACACG,0.127
9,GGACCAAC,-0.146
10,CACTGCTA,0.106
11,AAGAATCG,0.0047
12,GGGAGCTA,-0.215
13,CGCTACGA,0.0785
14,CGTGTCTC,0.0308
15,GCCTTCCC,-0.391
16,GCGAATAC,0.0251
17,AGACACGC,0.0575
18,TCGATTAA,0.142
19,CAGGTGCG,-0.245
20,ATGTCAAT,0.0933
21,TGGTGAAA,-0.0716
22,CATACTTC,0.191
23,CAGTCTCG,-0.101
24,CGCCCGTC,-0.333
25,CCCCTGTC,-0.332

row,Sequence,binding signal [E-score]
1,CCGTCTCC,-0.25
2,GGATTGAA,-0.0953
3,TGCCGTAA,0.0324
4,TGAAGACA,-0.0179
5,CGATTTAC,0.334
6,CACTATCG,0.219
7,TACCCATA,0.242
8,AGAGACCA,-0.0403
9,GGATTCAA,-0.157
10,AATTATGC,0.197
11,CGCAACGC,-0.0361
12,GATGGCGA,0.0309
13,GATCGCGC,-0.16
14,AAGTTATT,0.228
15,GTGTTATA,0.112
16,CGGTTCCA,0.0669
17,GAAATACC,0.175
18,GAGGGGAA,-0.359
19,CTTTACTA,0.0947
20,ATGCATTC,0.0203
21,GCTTTAAA,-0.0771
22,CTCATGCC,-0.252
23,CAGGGGGC,-0.434
24,ACCCGTAT,-0.0515
25,CCGGGACC,-0.441

row,Sequence,binding signal [E-score]
1,AGCCGATA,0.106
2,CCGAAAGC,-0.171
3,ATGATCGC,0.123
4,ACATCAGT,0.167
5,TACGTTAA,0.0468
6,TACACGGA,-0.0372
7,GGCACCTA,0.0107
8,AAGACCGG,-0.0634
9,CACTGAAG,-0.205
10,CCCACGAC,-0.373
11,AACATTTA,0.161
12,CTCTACAG,-0.0694
13,AAGAATCT,0.178
14,CCCCAGCC,-0.43
15,ATTAGCAA,0.0548
16,CCTGACGA,-0.0533
17,ACCCTCCT,-0.336
18,GTCGACCA,-0.262
19,AAACGCCG,-0.286
20,AGGCTCTA,0.0177
21,AAGACACG,-0.0199
22,CTTAAAGA,-0.152
23,GGCAGTAA,0.296
24,CGGACCTA,-0.16
25,ATACAGTC,0.0812

row,Sequence,binding signal [E-score]
1,AGTGTATA,0.303
2,CGCAAATC,0.106
3,ACGTTCCT,0.0509
4,ATTTGGAG,-0.164
5,ACGACTCA,0.0569
6,CAACATAA,0.169
7,GGCGACAC,-0.133
8,CCGGTCAA,-0.0527
9,ATTTCCTC,-0.0381
10,GCGGTAAC,0.032
11,TTACACAA,0.0766
12,GTTAGTGA,0.0739
13,AAGCCAGC,-0.00201
14,CAGTACCC,-0.164
15,AAGGTTTA,0.245
16,TGCGAGCA,-0.147
17,GGGCGATA,-0.215
18,GAGACGCA,-0.373
19,ACTGGGAC,-0.302
20,GTTGTAGA,0.27
21,CTCCGGAC,-0.132
22,CCCAAGGG,-0.304
